According to ChEMBL document CHEMBL4888484, “Replenishing the malaria drug discovery pipeline: Screening and hit evaluation of the MMV Hit Generation Library 1 (HGL1) against asexual blood stage Plasmodium falciparum ,using a nano luciferase reporter read-out” (2022):
Out of some 150,000 compounds screened, about 540 (0.36%) showed an effect of 50% or more. This is one part of the list.

system: Plasmodium falciparum; assay: Primary screen in NF54 nanoGlo assay, in single point, at 2uM, 72h; a lower Z score goes with more inhibition; format: functional, Erythrocyte; conditions: timepoint 72 hour

SMILES	% Inhibition	Z score
Cc1ccc(-c2noc(-c3cccc4c3C(=O)N(C3CCCC3)C4)n2)cc1	-13%	1.64
CCOc1ncc(C)cc1NC(=O)N1CCN(C(C)=O)C2(CCCCC2)C1	12%	-1.53
CCn1ccnc1CN(C)[C@@H]1CCN(Cc2ccccc2)C1	-9%	1.47
CCc1cccc(C)c1NC(=O)[C@H]1CCCN(S(=O)(=O)c2ccc3c(c2)NC(=O)CO3)C1	-4%	0.66
Cc1ccc(-c2cc(C(=O)NC3CCCCC3)n(-c3ccc(Cl)c(Cl)c3)n2)cc1C	-8%	1.13
COc1cncc(NC(=O)N[C@@H]2CCC[C@@H]2Oc2cnn(C)c2)c1	-7%	1.38
Cc1cc(C)n(CCCNc2nc(C)ns2)n1	-13%	1.79
COCc1cc(C)nc(N2CCc3ccccc32)c1C#N	-6%	0.81
CCCC[C@@H](C(=O)Nc1cc(C)on1)n1cnc2c1c(=O)n(C)c(=O)n2C	-9%	1.5
COc1ccc(CN[C@H]2[C@H](O)[C@@H](n3cc(Cl)cn3)[C@@H]3OC[C@H]2O3)cc1	-4%	0.6
COC[C@H]1CN(C(=O)c2sccc2C)CC12CCOCC2	9%	-1.64
CO[C@H]1CN(C(=O)Cc2cc(C)ccc2C)C[C@@H]1O	2%	-0.35
Cc1nc(CC(=O)NCCc2c[nH]cn2)cs1	-1%	0.12
CC(C)c1ccc([C@@H](C)CC(=O)Nc2ccn(C)c(=O)n2)cc1	11%	-1.25
O=C1NC(C2CCOCC2)C(=O)N1CC1CC=CCC1 (stereo not drawn)	-1%	0.08
Cc1cc(C)c2c(c1)CN(C(=O)C[C@@H](O)CC(C)(C)C)CC2	-4%	0.48
CC(C)[C@H](NC(=O)Cn1cnc2ccccc2c1=O)c1nc2ccccc2n1C(C)C	-14%	1.81
O[C@H]1CCCN(C2CCN(Cc3c(Cl)cncc3Cl)CC2)C1	8%	-1.65
CC1CCC(NC(=O)C(c2ccccc2)c2ccccc2)CC1 (stereo not drawn)	46%	-1.74
CO[C@@H](C)CS(=O)(=O)NC1CCC(F)(F)CC1	5%	-0.64
CN(C)c1cccc(C(=O)N/C(=N/c2ccc(F)cc2)NCCN2CCOCC2)c1	-11%	1.01

SMILES	% Inhibition	Z score
CC(C)NC(=O)CNc1cncc(Br)c1	-10%	1.6
CCn1cccc1-c1nc(C)c(C(=O)Nc2ccc(C)c(C)c2)s1	11%	-1.73
COCCC1(CNC(=O)N[C@@H](C)c2nccs2)CCCC1	-5%	0.72
CC1=CC[C@H]2CN(C(=O)c3ccccc3N3CCC(=O)NC3=O)C[C@H]2C1	-5%	1
Cc1noc(CCCNC(=O)[C@H]2CCc3[nH]cnc3C2)n1	-9%	1.57
O=S(=O)(N[C@H]1CCCc2ccccc21)c1cnn2c1OCCC2	-10%	1.49
CCc1cc(-c2ccc(C(=O)N3C[C@@H](C)O[C@@H](C)C3)cc2)nc(N(C)C)n1	-8%	1.56
CC(C)NC(=O)CCCc1ccccc1	-11%	1.49
O=C(Cc1c[nH]c2ccccc12)Nc1ccc2nc(N3CCCC3)sc2c1	0%	0.07
CCc1ccc(F)cc1C(=O)N[C@@H](CC1CC1)C(=O)O	2%	-0.34
COc1ccc(Cl)cc1NC(=O)COC(=O)CCS(=O)(=O)c1ccc2ccccc2c1	7%	-0.84
Cc1ccsc1-c1nnc(CC(=O)NCc2ccc(F)cc2)o1	10%	-0.96
O=C(c1ncoc1-c1cccs1)N1CCOC[C@H]1C1CC1	-4%	0.51
COCC(=O)Nc1cc(C(=O)O)c2c(c1)nc(C1CCC1)n2C	0%	-0.08
CC(NC(CC1CCC1)c1ccccc1)c1cn(C)cn1 (stereo not drawn)	6%	-1.14
CC(C)C(=O)N[C@@H](C)c1ccc(Br)cc1OCCCO	28%	-2.85
COc1ccc(-c2noc(-c3ccc(N4CCCCC4)nn3)n2)cc1	-7%	0.8
O=C(COc1ccccc1)N1CC(n2cnnc2C2CCOCC2)C1	-9%	1.66
Cn1nnc2ccc(-c3noc(CNC(=O)c4cccs4)n3)cc21	0%	-0.08
Cc1ccc(C(=C2C3C=CC2C2C(=O)NC(=O)C32)c2ccc(C)cc2)cc1 (stereo not drawn)	-1%	0.16
O=C(Nc1ccccc1-c1ccc(=O)[nH]n1)C1CCN(c2ccc(-n3cccn3)nn2)CC1	-20%	2.5

SMILES	% Inhibition	Z score
O=C(O)c1cc2cc(-c3ccccc3)cc3c2n(c1=O)CCC3	1%	-0.1
CCc1nn(-c2ccccc2)c2c1CN(C(=O)Nc1cccc(OC)c1)[C@H](c1cccc(C)c1)c1cccn1-2	-11%	2.02
c1ccc2[nH]c(-c3cccc4nonc34)nc2c1	-7%	1.3
CN(Cc1cnc(NC[C@H]2CCCO2)nc1)Cc1nccs1	-9%	1.33
O=C1CN(c2ccc(NC(=O)C3=CCCCC3)cn2)CCN1	-7%	0.75
COc1cc(-c2onc(C)c2C(=O)N[C@H]2CCC[C@@H]2OCc2ccccc2)cc(OC)c1OC	-14%	1.3
NC(=O)[C@H]1CCCN(CCNC(=O)Nc2ccc(-c3cn[nH]c3)cc2)C1	-1%	0.11
O=C(Cn1ncc(=O)c2ccccc21)NCc1ccncc1	-8%	1.43
CCOC(=O)c1c(NC(=O)C2CCOCC2)c2c(F)cccc2n1C	-8%	1.47
CC(C)c1nsc(NCc2cncc(F)c2)n1	-48%	5.67
COc1ccc(CNC(=O)c2ccc(N3C(=O)[C@@H](C)CS3(=O)=O)cc2Cl)cc1OC	-13%	1.66
O=C1NC2(CCN(S(=O)(=O)c3ccccc3)CC2)N=C1c1ccccc1	-13%	1.62
CCOC(=O)Cc1csc(NC(=O)Cn2cc(OC)c(=O)cc2C)n1	3%	-0.42
Cc1cc(NC(=O)CCc2nnc[nH]2)n(-c2cc(C(F)(F)F)ccc2Cl)n1	-12%	1.74
CCc1noc(Cn2ccc(=O)c3sccc32)n1	0%	-0.09
Cc1ccc(Cl)cc1NC(=O)N(C)CCc1noc(C(=O)NCc2ccc(F)cc2)n1	-4%	0.35
COC(=O)CN(Cc1ccc2cn[nH]c2c1)C1CCCC1	-6%	0.69
Cc1nnc(CNC(=O)Nc2ncc(C(C)C)s2)n1C	10%	-1.18
COCC[C@]1(NC(=O)c2ccc(F)cc2)CCN(C(=O)Cn2cccn2)C1	3%	-0.46
CC(=O)N1CCC(CC(=O)NCCC2=CCCCC2)(N2Cc3ccccc3C2=O)CC1	-9%	1.31
CC(=O)Oc1c(-c2ccc(NC(=O)C(C)C)cc2)c(-c2cccc(F)c2)nn1-c1ccc(C)cc1	-10%	1.39

SMILES	% Inhibition	Z score
CC(C)c1nccc(N2CCC3(CC2)C[C@@H]3C(=O)O)n1	-13%	2.64
CON(C)CC(O)Cn1cc(NC(=O)C2CC2c2ccc(Br)cc2)cn1 (stereo not drawn)	-4%	0.39
CC(C)(C)C(F)(F)CNC(=O)N1CCC(n2cc(C(N)=O)nn2)CC1	-4%	0.77
C[C@@H](CNC(=O)c1cnn[nH]1)c1ccccc1	-11%	2.05
CCC(CC)c1n[nH]c2c1CN(C(=O)c1ccc3sc(N)nc3c1)CC2	-14%	2.18
N/C(=N\c1ccccc1)N1CCOCC1	3%	-0.52
O=C1C2CCCC[C@H]2c2ccccc2N1Cc1ccccc1 (stereo partly drawn)	-11%	1.31
Cc1ccc([C@@]2(C(=O)N3CCN(CCOCCO)CC3)CC2(C)C)cc1	7%	-0.65
C[C@@]1(C(=O)NC2CCCCCCC2)Cn2c(ccc2-c2ccccc2)C(=O)N1Cc1cccnc1	-4%	0.53
CNS(=O)(=O)CC(=O)NCc1cccc(Cl)c1F	-6%	0.83
C#CCN(C)CCNS(=O)(=O)c1ccccc1	5%	-0.64
Cc1ccc(CN2C(=O)C3CCCCC3C2=O)cc1S(=O)(=O)NCc1ccco1 (stereo not drawn)	-10%	1.37
N#CCc1ccc(OCCOn2nnc3ccccc32)cc1	-3%	0.64
Cc1cccnc1OC[C@H]1CCCOC1	-4%	0.49
C[C@@H]1CCO[C@@H]1C(=O)NCC1CCCCC1NS(C)(=O)=O (stereo partly drawn)	-3%	0.34
CC[C@@]1(C)CN(C(=O)CCc2ccccc2C(=O)O)CCO1	-15%	1.8
CCN(C(=O)c1ccnc(C(=O)O)c1)[C@@H](C)Cc1ccsc1	-9%	1.15
Cc1noc(C)c1CCN1[C@@H]2C[C@H]3CC[C@]2(CS1(=O)=O)C3(C)C	-10%	1.29
Cc1cc(C)n([C@@H](C)CNC(=O)c2cc(-c3c(C)nn(C)c3C)nn2C)n1	-12%	1.3
Cc1c(CC(=O)N2CC[C@H](N)C2)c2c(n1Cc1ccccc1F)CCCC2=O	-22%	2.4
C[C@H](NCCN1CCCCC1)c1cc(Br)ccc1F	-5%	0.51
